Target: flag-Rod (UniProt P50748 1-2209)
Experiment: pull-down

Chain of UniProt P50748 (P50748 whole entry): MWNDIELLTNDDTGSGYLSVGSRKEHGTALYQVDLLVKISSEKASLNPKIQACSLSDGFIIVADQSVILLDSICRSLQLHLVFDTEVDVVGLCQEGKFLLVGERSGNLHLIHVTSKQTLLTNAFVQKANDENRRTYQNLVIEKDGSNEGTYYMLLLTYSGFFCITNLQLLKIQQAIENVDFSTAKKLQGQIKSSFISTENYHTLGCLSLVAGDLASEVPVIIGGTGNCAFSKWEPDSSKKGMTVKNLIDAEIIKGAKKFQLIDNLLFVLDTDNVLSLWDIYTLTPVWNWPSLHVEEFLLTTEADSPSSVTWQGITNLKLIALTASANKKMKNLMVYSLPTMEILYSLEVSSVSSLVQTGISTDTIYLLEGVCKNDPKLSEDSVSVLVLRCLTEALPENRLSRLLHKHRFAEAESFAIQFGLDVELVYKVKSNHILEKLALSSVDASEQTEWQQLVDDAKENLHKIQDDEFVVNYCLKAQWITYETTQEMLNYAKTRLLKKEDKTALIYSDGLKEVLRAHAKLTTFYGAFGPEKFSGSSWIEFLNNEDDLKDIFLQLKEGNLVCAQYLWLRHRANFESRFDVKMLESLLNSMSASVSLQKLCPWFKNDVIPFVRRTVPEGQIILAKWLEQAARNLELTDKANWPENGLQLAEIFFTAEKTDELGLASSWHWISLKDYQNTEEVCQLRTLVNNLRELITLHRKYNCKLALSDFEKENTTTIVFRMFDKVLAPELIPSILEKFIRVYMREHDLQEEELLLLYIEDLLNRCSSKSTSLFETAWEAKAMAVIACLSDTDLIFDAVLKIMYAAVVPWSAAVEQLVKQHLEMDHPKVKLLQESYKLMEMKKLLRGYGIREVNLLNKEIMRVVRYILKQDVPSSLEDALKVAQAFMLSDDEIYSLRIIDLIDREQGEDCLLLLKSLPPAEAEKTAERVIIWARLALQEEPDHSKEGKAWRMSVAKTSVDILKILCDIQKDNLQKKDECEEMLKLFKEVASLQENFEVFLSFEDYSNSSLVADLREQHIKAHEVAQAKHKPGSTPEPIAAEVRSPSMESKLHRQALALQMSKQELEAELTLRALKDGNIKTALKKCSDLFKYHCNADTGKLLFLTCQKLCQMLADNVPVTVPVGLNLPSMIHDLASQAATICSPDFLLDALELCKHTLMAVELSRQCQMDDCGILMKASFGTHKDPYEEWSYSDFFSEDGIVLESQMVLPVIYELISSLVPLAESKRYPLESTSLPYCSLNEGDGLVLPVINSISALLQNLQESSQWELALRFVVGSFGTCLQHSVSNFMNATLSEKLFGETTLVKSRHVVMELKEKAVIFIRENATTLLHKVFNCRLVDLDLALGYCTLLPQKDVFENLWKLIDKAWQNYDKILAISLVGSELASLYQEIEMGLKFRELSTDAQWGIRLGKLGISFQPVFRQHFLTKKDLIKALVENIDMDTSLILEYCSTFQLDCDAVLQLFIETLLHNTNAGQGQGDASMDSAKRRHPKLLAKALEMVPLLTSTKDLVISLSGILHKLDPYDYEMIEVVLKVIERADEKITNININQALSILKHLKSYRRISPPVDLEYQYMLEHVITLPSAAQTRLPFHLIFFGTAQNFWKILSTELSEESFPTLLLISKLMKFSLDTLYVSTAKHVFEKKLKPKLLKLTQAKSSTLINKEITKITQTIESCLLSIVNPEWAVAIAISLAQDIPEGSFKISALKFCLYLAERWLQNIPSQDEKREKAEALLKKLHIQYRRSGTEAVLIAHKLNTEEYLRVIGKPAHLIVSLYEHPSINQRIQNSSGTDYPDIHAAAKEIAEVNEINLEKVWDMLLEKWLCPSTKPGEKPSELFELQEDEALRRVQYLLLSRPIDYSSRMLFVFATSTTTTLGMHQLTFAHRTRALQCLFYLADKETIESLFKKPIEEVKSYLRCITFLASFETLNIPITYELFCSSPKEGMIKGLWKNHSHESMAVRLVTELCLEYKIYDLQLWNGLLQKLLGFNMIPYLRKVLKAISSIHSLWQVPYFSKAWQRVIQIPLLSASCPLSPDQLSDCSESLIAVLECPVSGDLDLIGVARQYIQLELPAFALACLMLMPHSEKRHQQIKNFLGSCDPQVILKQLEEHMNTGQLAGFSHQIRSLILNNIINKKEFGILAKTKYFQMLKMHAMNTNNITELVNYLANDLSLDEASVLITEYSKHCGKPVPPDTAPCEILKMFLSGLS

binding result: binds
B1: reconstituted Mad1–Mad2 complex, phosphorylated in vitro by ULK1 (complex)
chain 1: MEDLGENTMVLSTLRSLNNFISQRVEGGSGLDISTSAPGSLQMQYQQSMQLEERAEQIRSKSHLIQVEREKMQMELSHKRARVELERAASTSARNYEREVDRNQELLTRIRQLQEREAGAEEKMQEQLERNRQCQQNLDAASKRLREKEDSLAQAGETINALKGRISELQWSVMDQEMRVKRLESEKQELQEQLDLQHKKCQEANQKIQELQASQEARADHEQQIKDLEQKLSLQEQDAAIVKNMKSELVRLPRLERELKQLREESAHLREMRETNGLLQEELEGLQRKLGRQEKMQETLVGLELENERLLAKLQSWERLDQTMGLSIRTPEDLSRFVVELQQRELALKDKNSAVTSSARGLEKARQQLQEELRQVSGQLLEERKKRETHEALARRLQKRVLLLTKERDGMRAILGSYDSELTPAEYSPQLTRRMREAEDMVQKVHSHSAEMEAQLSQALEELGGQKQRADMLEMELKMLKSQSSSAEQSFLFSREEADTLRLKVEELEGERSRLEEEKRMLEAQLERRALQGDYDQSRTKVLHMSLNPTSVARQRLREDHSQLQAECERLRGLLRAMERGGTVPADLEAAAASLPSSKEVAELKKQVESAELKNQRLKEVFQTKIQEFRKACYTLTGYQIDITTENQYRLTSLYAEHPGDCLIFKATSPSGSKMQLLETEFSHTVGELIEVHLRRQDSIPAFLSSLTLELFSRQTVA
chain 2: [letters of about 200 residues not shown]
modifications: phosphoserine at 546 (in vitro phosphorylation by ULK1)
